The list shows a part of the results. The list includes weakly bound sequences.
biological target: MaxL homodimer (UniProt P61244); assay: universal protein-binding microarray (PBM); details: PBS-based mixture, 10 nM His-tagged protein dimer, 2% milk, 200 ng/uL BSA, 50 ng/uL salmon testes DNA, 0.02% TX-100; detection with Alexa 488 anti-His …; high values mean tight binding; most listed sequences are background and not binding sites; double strand, one strand shown
Chain of UniProt P61244 (P61244 whole entry): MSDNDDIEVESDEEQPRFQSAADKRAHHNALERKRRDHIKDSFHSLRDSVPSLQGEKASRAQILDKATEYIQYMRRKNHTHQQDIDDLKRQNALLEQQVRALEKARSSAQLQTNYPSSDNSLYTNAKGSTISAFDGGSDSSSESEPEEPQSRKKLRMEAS

Sequence | binding signal (normalized occupancy)
ACGGGTCC | 0.0672
CAATCTAC | 0.0764
AGGGATTC | 0.0746
ACTAGTTC | 0.0709
TCCAATAA | 0.073
AGTAACTG | 0.0746
CTATATGA | 0.0846
AGCGGTCA | 0.0736
GTCACCTA | 0.0725
CAGACGCC | 0.0712
ATCCTGCA | 0.0768
CCCTCCGG | 0.0678
CACCGCCC | 0.0721
CTAGATGA | 0.0788
CCTCTTCA | 0.0765
GCTCATCC | 0.0753
GATCTCAA | 0.0701
AAACGTTT | 0.0755
ATTCTAAG | 0.0803
AATCGTTC | 0.0763
AACTTCAG | 0.0716
AACAATAG | 0.076
AACTCATT | 0.0748
CATTCCTC | 0.0759
ACGGTGCC | 0.0705

Sequence | binding signal (normalized occupancy)
CCTCCGCG | 0.0696
AGTACTAA | 0.0769
CCAAGGCC | 0.0671
AGAGATTC | 0.0757
AATGTCAG | 0.0792
TTAGGAAA | 0.0734
ATGGCCAC | 0.0858
CTAGTATA | 0.0786
AACTGAGG | 0.0669
CAAGACCG | 0.0717
ATAAGCAG | 0.0802
TCGTAAGA | 0.0723
GCGAGCGA | 0.068
CAACTGGA | 0.0733
AACGTCGG | 0.0712
CGACCGCG | 0.0723
GAACAGAC | 0.0719
ACAAAACA | 0.0757
ATGTCAGA | 0.0793
AACAGTTG | 0.0724
AAACTCCA | 0.07
TAGCAAAA | 0.0703
CTTTCATC | 0.0723
ACGTGTTC | 0.104
CGGGGGCC | 0.0732

Sequence | binding signal (normalized occupancy)
GACTATCC | 0.0773
GCGGCTGA | 0.0676
ACAGGGTC | 0.075
AGCAAACC | 0.0757
GGAGCTGA | 0.0681
CCTTGAAC | 0.0747
ACTACTTG | 0.0765
CTTATCTA | 0.0803
AGTTTTTC | 0.0708
ATTGAGAC | 0.0715
GCGGGTCC | 0.0754
CAGTGTCG | 0.0688
ACTTATAT | 0.085
ATCGCCAT | 0.0747
AATCTACA | 0.0768
AACTACTC | 0.0738
TAACAGGA | 0.0786
CGCGTGAA | 0.105
CTGATGGA | 0.0706
AACAACGT | 0.084
ATAGCACC | 0.0765
GGGGTGAC | 0.084
ATAGGGGG | 0.0844
CTTTACCA | 0.0764
ATCGGTAC | 0.0728

Sequence | binding signal (normalized occupancy)
CCCCCGAC | 0.0816
GCGCTGCC | 0.0709
TCACGTGA | 0.19
ACCCATCT | 0.0849
CGGACATA | 0.0765
ACGATCAT | 0.0798
GCCCGTCC | 0.069
GGTTTATA | 0.0783
CGTTATCA | 0.0801
AATACCTG | 0.0787
CGTTTGAC | 0.0718
ATGGACTA | 0.0826
AAGAATAA | 0.0792
TAGAGCCA | 0.0849
ACACGCCG | 0.1
AGCATTAT | 0.0832
AGCTTAAT | 0.0701
CTTATATA | 0.0781
CTAAGCCA | 0.0744
CACGTGTA | 0.536
ATGATTCG | 0.0784
GACGATAC | 0.0737
CTTAACGA | 0.0704
GCCCACAA | 0.0736
GTCTGCGA | 0.0694

Sequence | binding signal (normalized occupancy)
AGTTAGTA | 0.0757
TCATCACA | 0.0891
GGCATCGA | 0.0758
AGTAAGGC | 0.0714
TACTTTGA | 0.0757
AATACATT | 0.0787
CCGTGGCG | 0.0765
CCATAGAC | 0.0788
ATCATTAA | 0.0751
TATGCCAA | 0.077
ACGTATTG | 0.0779
CCTATTGC | 0.0731
CCGCTATC | 0.0727
CGGAGCCA | 0.0696
GACAGGCA | 0.0734
CGCACTCC | 0.0746
ACGGCGGA | 0.0709
ATTATCGC | 0.0731
GCAGCGCA | 0.0697
CATTTGAC | 0.076
ATAACCGG | 0.0746
CCCGCAAG | 0.0687
CAGTCAGC | 0.0721
ATAATTCG | 0.0765
CAGTATTA | 0.0819

Sequence | binding signal (normalized occupancy)
ATAGAGGC | 0.075
CGAGGTTC | 0.0748
ACCAGATA | 0.0849
ATGGTACC | 0.0782
CTCGCGTA | 0.0788
CAGGTGTC | 0.0839
GCGAATTA | 0.0749
AGATCTCG | 0.0813
CGATAACA | 0.0816
AGAGGCGG | 0.0671
GGCCATAC | 0.0792
AGTGGTTA | 0.0793
ATTGTACA | 0.0858
CAGGTAGA | 0.0758
AACCAGTT | 0.0664
CCCCGCAG | 0.072
ACTCGTAC | 0.0749
AATAACTC | 0.0816
CCCTCGAC | 0.0726
GGTTTCAA | 0.0726
TAAAGGGA | 0.0701
CTACAATA | 0.0785
CTACTAAC | 0.0757
TCCTACAA | 0.0745
GATTTAGA | 0.0724

Sequence | binding signal (normalized occupancy)
TGATGACA | 0.0816
TTACCGAA | 0.0761
ACGCTAGA | 0.081
GCAACTAC | 0.0715
GTGGACTA | 0.0767
CCTATGAA | 0.0799
TGTCCACA | 0.0864
ACCGCCAA | 0.0725
GTCAGAGA | 0.073
ACCTGAAC | 0.0772
CAGATTGC | 0.0722
ATATATTC | 0.0816
ACCTTCAC | 0.0808
GGCTTACC | 0.07
ATGGATTC | 0.0845
CCTCGTCG | 0.0697
CATTGGTA | 0.0757
CGGTCTGC | 0.0748
GCACGTGC | 0.834
CGAGGCCG | 0.0716
GCGTTAAC | 0.0794
AGGCCGAA | 0.0669
